# Source: PMC4336329 (PLoS ONE, 2015)
# The campaign covered roughly 310,000 compounds. About 14,000 (4.5%) showed an effect of 50% or more. The effect is printed as a negative number. The list shows a part of the results.
# Biological target: human ether-à-go-go-related gene (hERG) potassium channel (human, UniProt Q12809)
# Test: primary screen, population patch clamp on CHO cells stably expressing hERG
# 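Also: peak tail current of the secondary pulse compared with the same well before compound.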
# Chain of human ether-à-go-go-related gene (hERG) potassium channel (Q12809 whole entry, looked up): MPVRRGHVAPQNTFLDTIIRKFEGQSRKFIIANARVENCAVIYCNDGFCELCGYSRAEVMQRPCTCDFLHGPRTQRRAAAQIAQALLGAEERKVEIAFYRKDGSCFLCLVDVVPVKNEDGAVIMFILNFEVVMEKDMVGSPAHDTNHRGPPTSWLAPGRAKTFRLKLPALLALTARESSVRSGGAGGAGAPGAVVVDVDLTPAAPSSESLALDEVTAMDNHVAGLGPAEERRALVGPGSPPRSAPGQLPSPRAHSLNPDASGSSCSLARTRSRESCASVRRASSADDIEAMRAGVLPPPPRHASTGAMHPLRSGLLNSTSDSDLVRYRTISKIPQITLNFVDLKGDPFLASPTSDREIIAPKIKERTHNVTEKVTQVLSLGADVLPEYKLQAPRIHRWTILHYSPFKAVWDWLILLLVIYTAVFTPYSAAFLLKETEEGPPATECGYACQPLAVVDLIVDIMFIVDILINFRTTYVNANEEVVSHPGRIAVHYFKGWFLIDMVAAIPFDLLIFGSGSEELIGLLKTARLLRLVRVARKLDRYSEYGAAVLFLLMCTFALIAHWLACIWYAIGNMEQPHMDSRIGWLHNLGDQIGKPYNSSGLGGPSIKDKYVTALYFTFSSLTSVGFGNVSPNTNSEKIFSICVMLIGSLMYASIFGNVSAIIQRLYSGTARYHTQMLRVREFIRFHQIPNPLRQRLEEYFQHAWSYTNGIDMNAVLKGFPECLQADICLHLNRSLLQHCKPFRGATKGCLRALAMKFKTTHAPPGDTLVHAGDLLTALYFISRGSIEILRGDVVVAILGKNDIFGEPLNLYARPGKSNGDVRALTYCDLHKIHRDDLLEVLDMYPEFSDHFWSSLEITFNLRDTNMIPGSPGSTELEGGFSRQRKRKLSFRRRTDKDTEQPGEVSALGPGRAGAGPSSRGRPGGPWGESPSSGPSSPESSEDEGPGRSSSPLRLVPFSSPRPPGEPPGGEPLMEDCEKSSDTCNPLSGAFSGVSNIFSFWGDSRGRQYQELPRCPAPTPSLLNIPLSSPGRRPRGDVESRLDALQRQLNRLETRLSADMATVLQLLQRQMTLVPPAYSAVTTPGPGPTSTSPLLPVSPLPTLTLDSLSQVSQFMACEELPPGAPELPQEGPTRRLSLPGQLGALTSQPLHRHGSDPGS
row,Compound,"hERG current change (%, negative = inhibition) at 10uM [%]"
1,COc1cc([N+](=O)[O-])c2nccnc2c1,17.7
2,CCc1nnc(NC(=O)c2nc3nc(C)cc(C)n3n2)s1,8.87
3,Cc1ccc2nc(-c3cccnc3)c(NC3CCCCC3)n2c1,15
4,COC(=O)c1cn(NC(=O)Cc2ccc(OC)c(OC)c2)c(=O)c2ccccc12,-1.78
5,CCOc1ccc(-c2c(C#N)c(N)nc3sc(C(=O)c4ccccc4)c(N)c23)cc1,8.12
6,Cc1cc(C(=O)NNS(=O)(=O)c2ccc(C(C)(C)C)cc2)nn1C(C)(C)C,-10.5
7,CCc1cc(C(=O)OC)c(NC(=O)CC2Sc3ccc(C(F)(F)F)cc3NC2=O)s1 (stereo not shown),20.7
8,CCOC(=O)Cc1csc(NC(=O)c2ccc(S(=O)(=O)N3CCCCC3)cc2)n1,-42.2
9,O=C1CCCc2nc(N3CCCCC3)sc21,9.36
10,CCN(CC(=O)Nc1ccc(NC(C)=O)cc1)C(=O)c1ccc(NC2CC2)c([N+](=O)[O-])c1,-46.1
11,CC(=O)C1=C(C)N(Cc2ccco2)C(=O)C1(NC(=O)C1CCCCC1)C(F)(F)F (stereo not shown),1.21
12,COc1ccc(-c2nc(CS(=O)(=O)CC(=O)NCCCN3CCN(C)CC3)c(C)o2)cc1,-2.65
13,O=C(Cc1ccc(Cl)cc1)NCCc1ccc(F)cc1,-2.82
14,Cn1cnc(S(=O)(=O)NCc2ccc(Br)cc2)c1,-5.05
15,Cc1c(C(=O)NCc2ccc3c(c2)OCO3)oc2ccc(S(=O)(=O)N3CCC(C)CC3)cc12,-5.97
16,Cc1cccc2nc(CSc3nnnn3-c3ccccc3)cn12,-41.5
17,NS(=O)(=O)c1ccc(CNC(=O)c2ccc(Cl)c([N+](=O)[O-])c2)cc1,7.39
18,O=C(Nc1nnc(-c2cccs2)o1)c1cccc(F)c1,11.8
19,Cc1cc(C)n2nc(SCc3nnc(SCc4ccccc4C)s3)nc2n1,-64.9
20,Cc1c2cnn(CC(=O)Nc3cccc(C(F)(F)F)c3)c(=O)c2c(C)n1Cc1ccccc1F,0.975
21,CCn1c(SCC(=O)Nc2ccccc2)nnc1C1CCCCC1,9.8
22,Oc1ccc(-c2nccc(-c3ccc(F)cc3)n2)cc1,17.6

row,Compound,"hERG current change (%, negative = inhibition) at 10uM [%]"
1,O=C(O)CC(NC(=O)c1ccccc1NC(=O)c1ccccc1)C(=O)O (stereo not shown),10.2
2,COC(=O)c1c(NC(=O)C(=O)NCCCN2CCOCC2)sc2c1CCCC2,-11.6
3,CCCN1CCN(CCCNC(=O)c2ccc3nc(N4CCC(C)CC4)sc3c2)CC1,-50.7
4,CCCCCCCN1CCN=C1Nc1ccccc1,-58
5,CN(C1=C(N2CCCCC2)C(=O)c2ccccc2C1=O)c1ccccc1,8.22
6,CC(C)CCN1CCN(Cc2cccn2-c2cccnc2)CC1CCO (stereo not shown),-32.5
7,Cc1noc(NC(=O)c2ccccc2)c1C#N,11.8
8,O=C(CSc1n[nH]c(-c2ccc(S(=O)(=O)N3CCCCC3)cc2)n1)Nc1nccs1,0.555
9,Clc1ccc2[nH]c3c(NCCCN4CCOCC4)ncnc3c2c1,-69.9
10,CCc1ccccc1N(C)C(=O)CCc1nc(-c2ccc(C)cc2)no1,-0.297
11,CCOc1ccc(-c2nnn(CC(=O)c3ccc4c(c3)OCCO4)n2)cc1OCC,-1.86
12,Clc1ccc(Oc2cnc3ccccc3n2)cc1,-2.92
13,C(=N\n1cnnc1)/c1cn(Cc2ccccc2)c2ccccc12,14.9
14,CC(C)CN(C(=O)c1ccc2c(c1)OCO2)C1CCS(=O)(=O)C1 (stereo not shown),-3.84
15,Cc1ccc(S(=O)(=O)Nc2ccc(Cl)cn2)cc1C,15
16,Cc1cc(C)c2nc(C(F)(F)F)nc(N3CC(C)OC(C)C3)c2c1 (stereo not shown),12
17,Cc1ccc(C(=O)Nc2ccncc2)c(Cl)c1,4.14
18,O=C(CN1C(=O)NC2(CCCCC2)C1=O)NCCc1c[nH]c2ccccc12,13.6
19,CCOC(=O)/C(=N\Nc1ccc(Cl)cc1)c1csc(Nc2ccccc2)n1,5.88
20,COc1ccc(-c2[nH]ncc2-c2csc(C)n2)c(O)c1,15.2
21,CCOC(=O)Nc1sc2c(c1C#N)CCC(C)C2 (stereo not shown),8.9
22,O=C(OCCOc1cccc(Cl)c1)c1ccc(F)c(S(=O)(=O)N2CCOCC2)c1,0.127

row,Compound,"hERG current change (%, negative = inhibition) at 10uM [%]"
1,CCOc1ccc(C(=O)CCC(=O)Nc2ccccc2C)cc1,9.46
2,COC(=O)c1c(NC(=O)c2cccnc2)sc(C(=O)N(C)C)c1C,5.5
3,CCCC(c1nnnn1Cc1ccc(OC)cc1)N1CCN(C(=O)c2ccco2)CC1 (stereo not shown),-51.3
4,COc1cc(C(c2c(C)[nH][nH]c2=O)c2c(C)[nH][nH]c2=O)ccc1OC(=O)c1cccc([N+](=O)[O-])c1,10.4
5,O=C(OCN1C(=O)c2ccccc2C1=O)c1cccnc1SC(F)F,-6.46
6,Cc1cc(C(=O)N/N=C/c2ccco2)c2ccccc2n1,1.37
7,Cc1ccc(SCCNC(=S)Nc2ccccc2)cc1,0.545
8,COc1ccc(S(=O)(=O)N2CCN(CC(O)CN3CCOCC3)CC2)cc1 (stereo not shown),9.52
9,CC(NC(=O)CNC(=S)N(Cc1ccccc1)Cc1cccnc1)c1ccccc1 (stereo not shown),3.93
10,CN1CCN(c2nc(-c3ccco3)cc(C(F)(F)F)n2)CC1,-62.8
11,COc1ccccc1-c1ccc(SCc2ccccc2)nn1,-29.2
12,COc1cccc(C(=O)Nc2cccc(C(=O)NC3=NN(c4c(Cl)cc(Cl)cc4Cl)C(=O)C3)c2)c1,6.82
13,COc1ccc(OC)c(NC(=O)c2ccccc2OC(C)=O)c1,10.8
14,Cc1nc2nc(-c3cccs3)[nH]c2cc1Br,-3.94
15,CC1(C)CC(=O)CC(C)(C)N1OC(=O)c1ccco1,-0.117
16,COc1cccc2cc(C(=O)N3CCN(C(=O)c4ccccc4)CC3)c(=O)oc12,7.71
17,Cc1ccc(NC(=O)C2CCCN2C(=O)OCc2ccccc2)cc1F (stereo not shown),-12.4
18,O=C(Oc1ccc(-c2nnco2)cc1)c1ccco1,11.3
19,C=CCn1c(SCC(=O)Nc2ccc3c(c2)CCC3)nnc1-c1cccs1,-76.9
20,OC(COC(c1ccccc1)c1ccccc1)CN1CCN(c2cccc(Cl)c2)CC1 (stereo not shown),6.16
21,C=CCn1c(SCC(=O)Nc2ncc(Cc3cc(C(F)(F)F)ccc3Cl)s2)nnc1-c1ccncc1,11.1
22,Cc1ccc(O)c(NC(=O)c2cc(-c3ccco3)on2)c1,8.04

row,Compound,"hERG current change (%, negative = inhibition) at 10uM [%]"
1,COc1ccc(NC(=O)/C(C#N)=C/c2ccc(-c3ccccc3C(=O)O)o2)cc1,11.8
2,Cc1ccc(CNC(=O)C2CC(c3ccccc3[N+](=O)[O-])=NO2)cc1 (stereo not shown),-36.1
3,CCCOc1ccc(OCCSc2ncccn2)cc1,-2.55
4,CSCCC(NC(=O)c1ccco1)C(=O)NCC1CCCCC1 (stereo not shown),-7.41
5,COc1ccc(NC(=O)CN(C)CC(=O)Nc2sc3c(c2C(N)=O)CCC3)cc1,-79
6,CC(=O)C1=C(C)NC2=C(C(=O)CC(C)(C)C2)C1C (stereo not shown),47.1
7,O=C(CSc1nc2[nH]c(=O)[nH]c(=O)c2s1)Nc1cccc(F)c1,9.84
8,CCOc1ccc(-c2cn(-c3cccc(SC)c3)c(=O)[nH]2)cc1,-6.98
9,Cc1c(CC(=O)NCC(=O)N[C@H](Cc2ccccc2)C(=O)O)c(=O)oc2cc(O)ccc12,7.77
10,O=C(O)CN1CCCC1=Nc1ccccc1,1.04
11,O=C(NC1CCCC1)C(c1ccccc1)N(Cc1cccnc1)C(=O)Cc1cccs1 (stereo not shown),7.69
12,CCOC(=O)C1=C(CSc2nc(-c3ccccc3)ccc2C#N)OC(N)=C(C#N)C1c1cccnc1 (stereo not shown),-4.37
13,COc1cccc(NC(=O)c2ccc(S(=O)(=O)N(C)C)cc2)c1,-3.75
14,CC(=O)N(C)c1ccc(NC(=S)NCC(C)C)cc1,3.87
15,O=C1CCN(Cc2ccccc2)CCN1[C@H](CO)Cc1ccccc1,14.5
16,Cc1ccccc1C(=O)Nc1cccc(NC(=O)c2ccccc2[N+](=O)[O-])c1,10.8
17,COc1ccc(S(=O)(=O)N2CC(O)CC2C(=O)OCc2nc3sc(C)c(C)c3c(=O)[nH]2)cc1 (stereo not shown),-12.1
18,Cc1cc(C(=O)COC(=O)c2cccnc2Cl)c(C)n1-c1c(C)n(C)n(-c2ccccc2)c1=O,10
19,CCOC(=O)N1CCN(C(=O)c2cc(OC)c(OC)c(OC)c2)CC1,8.92
20,Cc1ccccc1Cn1c(=O)n(-c2ccccc2)c(=O)c2ccc(C(=O)NCc3ccco3)cc21,-8.57
21,CC(C)(C)NS(=O)(=O)c1ccc(NC(=O)C(Sc2ccccc2)c2ccccc2)cc1 (stereo not shown),3.56
22,CCC(C)C1(CC)C(=O)NC(=O)N=C1N (stereo not shown),36.1
